Some of the results follow.

The target in this assay is T1, OsWOX13 (Oryza sativa, UniProt Q5QMM3 1-267).
T1 sequence: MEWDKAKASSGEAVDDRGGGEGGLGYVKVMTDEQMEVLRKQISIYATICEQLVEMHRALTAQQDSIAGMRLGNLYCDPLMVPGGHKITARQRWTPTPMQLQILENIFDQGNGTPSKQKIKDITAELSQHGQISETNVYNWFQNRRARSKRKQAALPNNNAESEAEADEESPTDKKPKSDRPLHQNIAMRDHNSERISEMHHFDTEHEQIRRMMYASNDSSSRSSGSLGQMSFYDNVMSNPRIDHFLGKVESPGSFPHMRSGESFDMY
Nature of the assay: protein-binding microarray (RPBM); PBS, 2% BSA, 51.3 ng/ul salmon testes DNA, 50 uM zinc acetate, 200 nM TF, 25 C, 1 h; high values mean tight binding. As to conditions: protein: recombinant; tags: N-terminal polyhistidine and DsRed monomer fusion (pET32a); label: CyDye5-dUTP incorporated in the synthesized complementary strand; 3' TTTTT single-stranded linker to array surface; dsDNA, one strand shown. In outline: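 For the binding signal, per-feature fluorescence intensity was read in arbitrary units on an Axon 4000B scanner. Before scanning, a 2% BSA-blocked custom Agilent array made double-stranded with Cy5-dUTP was washed after 1 h at 25 °C with 200 nM protein and 50 µM zinc acetate. The proteins were Ni–NTA-purified transcription factors with N-terminal polyhistidine and DsRed fusions, expressed in E. coli BL21-CodonPlus.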
In the case of “CATAATTATTGAAGGCACAAAACTGCGCACGTTGCGTACCCGGAGTCACCTAGTGCAG”, the binding signal is 27300 fluorescence intensity (a.u.).
“TGTTTGATTTGCTCTTGATTTGGAAGAAGAGATGAGAGGACGGAGTCACCTAGTGCAG”: the binding signal was 40100 fluorescence intensity (a.u.).
“GATAAATTATCACGAAACTGTAACTTCTACGCATATCACGCGGAGTCACCTAGTGCAG”: the binding signal was 23700 fluorescence intensity (a.u.).
Take “GTTTAATTCAATACTATAATTCCATCTAATTTGGGAAGCGCGGAGTCACCTAGTGCAG”: the binding signal is 7000 fluorescence intensity (a.u.).
Consider “GATTCGTTGAATTGATTGCTCTTAGTGCGATTGTGCGAATCGGAGTCACCTAGTGCAG”, for which the binding signal was 25900 fluorescence intensity (a.u.).
Turning to “TGTAAGGATAATTGTTAGATTGTTAATAGTGTAAATGTCGCGGAGTCACCTAGTGCAG”, the binding signal is 11200 fluorescence intensity (a.u.).
For the sequence “TCAAAATAATAAATTTTGATGATAAAATAAGTCACAACAACGGAGTCACCTAGTGCAG”, the binding signal is 5540 fluorescence intensity (a.u.).
Next, “AAACAGATGGTACTAAATTAAATTATACTGGCGCAATAGACGGAGTCACCTAGTGCAG”: 5320 fluorescence intensity (a.u.); “CACTTAACTTAATTAGTTAATTATTGCTCTATTTTCTCTGCGGAGTCACCTAGTGCAG”: 60500 fluorescence intensity (a.u.).
“TGCTTAACAGTCTTATATGATGTATCACGAAAGTTATTTCCGGAGTCACCTAGTGCAG”: the binding signal was 3250 fluorescence intensity (a.u.).
As to “ATATAAATCAAATTTACAACTTTGCTGTAGCTATAATTTGCGGAGTCACCTAGTGCAG”, the binding signal is 7160 fluorescence intensity (a.u.).
Next, “TTTCAACATTAATTAGGAGTATTTCGAAAACTGAAATCATCGGAGTCACCTAGTGCAG”: 4970 fluorescence intensity (a.u.); “AATGGATGAGATTGGTAGGTAGCTATGGCAGCTGCTTCTTCGGAGTCACCTAGTGCAG”: 3740 fluorescence intensity (a.u.); “TTGTAATTAATTAACTGATTAATTAAACTGCATGAATTTTCGGAGTCACCTAGTGCAG”: 60100 fluorescence intensity (a.u.).
Regarding “AGCTACCAAATTAATCAAGGGAACAAGTCATTAACTGTTACGGAGTCACCTAGTGCAG”, the binding signal was 5010 fluorescence intensity (a.u.).
As for “AATATTTGATGATAAATCAAGTCACAATAGAATAAATAATCGGAGTCACCTAGTGCAG”, the binding signal was 4090 fluorescence intensity (a.u.).
The figure for “TTAAAATTTAATTAATTTTATGCTTTAATGGTTATTTCTTCGGAGTCACCTAGTGCAG” is 36900 fluorescence intensity (a.u.); for “TCTAATGTATTGATGATGGACCGATCGCACTCACTCCAGGCGGAGTCACCTAGTGCAG” it is 23400 fluorescence intensity (a.u.).
Consider “TATTAATGGATACTGAAATATATTTGGAAGATGCTATATTCGGAGTCACCTAGTGCAG”, for which the binding signal was 3460 fluorescence intensity (a.u.).
As for “AGGGATAGATTGGCTTAGGGGCGGGTGGGTCTAGAGATTTCGGAGTCACCTAGTGCAG”, the binding signal is 5870 fluorescence intensity (a.u.).
As to “ACTAAATTGCACCCACCTCGCAAGCTCGTGTACTCGCAGTCGGAGTCACCTAGTGCAG”, the binding signal was 17600 fluorescence intensity (a.u.).
“ACCTAATTACGAATCACAAAGAGAGATGCCTCACATATACCGGAGTCACCTAGTGCAG”: the binding signal is 16000 fluorescence intensity (a.u.).
The figure for “CCCAAATTAACGCAGCCTTTGTCTATTTTGACCAAACCGTCGGAGTCACCTAGTGCAG” is 16400 fluorescence intensity (a.u.); for “GAAATTTGCCAATTTGCCAATTGCATCAGGATCACTCTCGCGGAGTCACCTAGTGCAG” it is 23100 fluorescence intensity (a.u.).
For the sequence “CCCTAAATAGGTTGATGGATTAGCTCCATTTTCCACCTAACGGAGTCACCTAGTGCAG”, the binding signal is 28200 fluorescence intensity (a.u.).
On to “GCTAATCATAGACTAATTATACTCAAAAGATTCGTCATTCCGGAGTCACCTAGTGCAG”, for which the binding signal was 32500 fluorescence intensity (a.u.).
The figure for “TTTTAATTATAATGTCACGTAAGCGGCACGTGGAATGAAACGGAGTCACCTAGTGCAG” is 18500 fluorescence intensity (a.u.); for “CTATGCTTATTAATTGGGAGGGCCACTGGGGAAAATGGCTCGGAGTCACCTAGTGCAG” it is 10700 fluorescence intensity (a.u.).
Next, “ACACTGACTGATTTACCCTTGATCATACTACTAGTACATTCGGAGTCACCTAGTGCAG”: 39100 fluorescence intensity (a.u.); “GATGTTTGAACACTAATTTAGAGTATTAAACATAGACTAGCGGAGTCACCTAGTGCAG”: 4030 fluorescence intensity (a.u.).
Next, “TGAAACTTGTAATTATCAATGGGGACCACCTATACATTTGCGGAGTCACCTAGTGCAG”: 12300 fluorescence intensity (a.u.); “ATATAATTTAACGAGGTTATGCGCCGTGGTACAAGATCCTCGGAGTCACCTAGTGCAG”: 19600 fluorescence intensity (a.u.); “TAGCTAATTTGGGTGTTGGTGCCTGGCTAGAAGGAGCTACCGGAGTCACCTAGTGCAG”: 4480 fluorescence intensity (a.u.).
On to “GTCATAAATTGATCCATACATATCATAGTAAAGCGTGGGTCGGAGTCACCTAGTGCAG”, for which the binding signal is 33400 fluorescence intensity (a.u.).
Regarding “GCTGGAGATTGGACCACCATTAACATCTCTTCGCTGCCATCGGAGTCACCTAGTGCAG”, the binding signal is 7680 fluorescence intensity (a.u.).
For the sequence “ACCTCACTGTCAATCGATATGGATTTGTATGATTTTCTATCGGAGTCACCTAGTGCAG”, the binding signal is 7670 fluorescence intensity (a.u.).
As to “ACTTAACTATTATTATCAATCCTCCCTGCTAAAATGTATACGGAGTCACCTAGTGCAG”, the binding signal is 12200 fluorescence intensity (a.u.).
Turning to “ATTGCGTGCTTGATTAATTAGTTTCTACCAACAATTTCTCCGGAGTCACCTAGTGCAG”, the binding signal is 8110 fluorescence intensity (a.u.).
As to “GTAATCTAGATTATATAACTAGATTACTATAAGCTGGATTCGGAGTCACCTAGTGCAG”, the binding signal was 6560 fluorescence intensity (a.u.).
For the sequence “GTTTTGATAAATTGATTTAAAACGCTTTATAAGAAGTGTCCGGAGTCACCTAGTGCAG”, the binding signal was 43800 fluorescence intensity (a.u.).
As to “ATAGATTTAATGAAAACTAATTTGATGTTTAAATGTTGTGCGGAGTCACCTAGTGCAG”, the binding signal is 43800 fluorescence intensity (a.u.).
On to “TGTACACATTAAACACTCAATCATCCAGCTTCAGCTGGGTCGGAGTCACCTAGTGCAG”, for which the binding signal is 6330 fluorescence intensity (a.u.).

Values taken from paper PMC7819943, “Rice protein-binding microarrays: a tool to detect cis-acting elements near promoter regions in rice”.
